Target: hepatitis C virus RNA dependent polymerase (NS5B) (Hepacivirus hominis (Hepatitis C virus), UniProt P26663)
Assay: Inhibition of NS5B RNA dependent RNA polymerase activity (SPA, UMP-[5,6 3H] incorporation)
[1] = IC50 μM, first compound table (printed title TABLE 10; Table 1)

O=C(N[C@@H](Cc1c[nH]c2ccc(O)cc12)C(=O)O)c1ccc2c(c1)nc(-c1ccoc1)n2[C@@H]1CCCC[C@H]1CO [Entry 22019]
IC50 (IC50 μM, Table 22): < 1 µM

O=C(NC(Cc1c[nH]c2ccc(O)cc12)c1ccncc1)c1ccc2c(c1)nc(-c1ccoc1)n2C1CCCCC1 (racemic) [Entry 11033, 1-Cyclohexyl-2-furan-3-yl-1H-benzimidazole-5-carboxylic Acid [2-(5-Hydroxy-1H-indol-3-yl)-1-pyridin-4-yl-ethyl]-amide]
IC50 (IC50, Table 11): < 1 µM

O=C(NCCc1ccc(O)cc1)c1ccc2c(c1)nc(-c1ccoc1)n2C1CCCCC1 [Entry 1025]
IC50 [1]: 5 to 10 µM

O=C(N[C@@H](Cc1ccc(O)cc1)C(=O)NCCN1CCOCC1)c1ccc2c(c1)nc(-c1ccoc1)n2C1CCCCC1 [Entry 1118]
IC50 [1]: 1 to 5 µM

O=C(O)COc1ccc2[nH]cc(C[C@H](NC(=O)c3ccc4c(c3)nc(-c3ccc(F)cc3)n4C3CCCCC3)C(=O)O)c2c1 [Entry 12023]
IC50 (IC50, Table 12): < 1 µM

COc1ccc(C(NC(=O)c2ccc3c(c2)nc(C2CC2)n3C2CCCCC2)C(=O)O)cc1OC (stereo not drawn) [Entry 2034]
IC50 (IC50 μM, Table 2): 10 to 25 µM

O=C(CCNC(=O)c1ccc2c(c1)nc(-c1ccoc1)n2C1CCCCC1)NC(Cc1cnc[nH]1)C(=O)O (racemic) [Entry 1228, 2-(3-{[1-(1-Cyclohexyl-2-furan-3-yl-1H-benzimidazol-5-yl)-methanoyl]-amino}-propanoylamino)-3-(3H-imidazol-4-yl)-propionic Acid]
IC50 [1]: 10 to 25 µM

O=C(O)COc1ccc(CN2CCCC(NC(=O)c3ccc4c(c3)nc(-c3ccoc3)n4C3CCCCC3)C2)cc1 (stereo not drawn) [Entry 1285]
IC50 [1]: 5 to 10 µM

CC(CC(=O)Nc1cccc(CC(=O)O)c1)NC(=O)c1ccc2c(c1)nc(-c1ccoc1)n2C1CCCCC1 (stereo not drawn) [Entry 1161]
IC50 [1]: 1 to 5 µM

O=C(N[C@@H](Cc1c[nH]c2ccc(O)cc12)C(=O)O)c1ccc2c(c1)nc(-c1ccco1)n2C1CCCCC1 [Entry 12007]
IC50 (IC50, Table 12): < 1 µM

CN1CCCC1CCNC(=O)[C@H](Cc1c[nH]c2ccc(O)cc12)NC(=O)c1ccc2c(c1)nc(-c1ccoc1)n2C1CCCCC1 (mixture of isomers) [Entry 13020, 1-Cyclohexyl-2-furan-3-yl-1H-benzimidazole-5-carboxylic Acid {(S)-2-(5-Hydroxy-1H-indol-3-yl)-1-[2(RS)-(1-methyl-pyrrolidin-2-yl)-ethylcarbamoyl]-ethyl}-amide]
IC50 (IC50, Table 13): < 1 µM

CS(=O)(=O)Nc1ccc2[nH]cc(C[C@H](NC(=O)c3ccc4c(c3)nc(-c3ccoc3)n4C3CCCCC3)C(=O)O)c2c1 [Entry 11025, (S)-2-{[1-(1-Cyclohexyl-2-furan-3-yl-1H-benzimidazol-5-yl)-methanoyl]-amino}-3-(5-methanesulfonylamino-1H-indol-3-yl)-propionic Acid]
IC50 (IC50, Table 11): < 1 µM

CC(C)[C@H](Cc1ccc(OCC(=O)O)cc1)NC(=O)c1ccc2c(c1)nc(-c1ccoc1)n2C1CCCCC1 [Entry 1088]
IC50 [1]: 1 to 5 µM

O=C(N[C@@H](Cc1c[nH]c2ccc(O)cc12)C(=O)O)c1ccc2c(c1)nc(-c1ccc(O)cc1O)n2C1CCCCC1 [Entry 2089]
IC50 (IC50 μM, Table 2): 1 to 5 µM

COc1cccc(C(NC(=O)c2ccc3c(c2)nc(-c2ccoc2)n3C2CCCCC2)C(=O)O)c1 (stereo not drawn) [Entry 1011]
IC50 [1]: 1 to 5 µM

O=C(N[C@@H](Cc1c[nH]c2ccc(O)cc12)C(=O)O)c1ccc2c(c1)nc(Cc1ccccc1)n2C1CCCCC1 [Entry 2102]
IC50 (IC50 μM, Table 2): 1 to 5 µM

O=C(N[C@@H](Cc1c[nH]c2ccc(NS(=O)(=O)C(F)(F)F)cc12)C(=O)O)c1ccc2c(c1)nc(-c1ccoc1)n2C1CCCCC1 [Entry 11026]
IC50 (Table 11): < 1 µM

Cc1cc(CC(NC(=O)c2ccc3c(c2)nc(-c2ccoc2)n3C2CCCCC2)C(=O)O)cc(Cl)c1OCC(=O)O (racemic) [Entry 16055, 3-(4-Carboxymethoxy-3-chloro-5-methyl-phenyl)-2-{[1-(1-cyclohexyl-2-furan-3-yl-1H-benzimidazol-5-yl)-methanoyl]-amino}-propionic Acid]
IC50 (IC50, Table 16): < 1 µM

O=C(O)CCc1cc(C[C@H](NC(=O)c2ccc3c(c2)nc(-c2ccoc2)n3C2CCCCC2)C(=O)O)ccc1O [Entry 16065, (S)-3-[3-(2-caboxyethyl)-4-hydroxy-phenyl]-2-{[1-(1-cyclohexyl-2-furan-3-yl-1H-benzoimidazol-5-yl)-methanoyl]-amino}-propionic Acid]
IC50 (IC50, Table 16): < 1 µM

COc1ccc(C(NC(=O)c2ccc3c(c2)nc(-c2ccsc2)n3C2CCCCC2)C(=O)O)cc1OC (stereo not drawn) [Entry 2067]
IC50 (IC50 μM, Table 2): 1 to 5 µM

O=C(O)COc1ccc(CNC2CCCC(NC(=O)c3ccc4c(c3)nc(-c3ccoc3)n4C3CCCCC3)C2)cc1 (stereo not drawn) [Entry 1284]
IC50 [1]: 10 to 25 µM

O=C(O)CCc1cccc(NC(=O)c2ccc3c(c2)nc(-c2ccoc2)n3C2CCCCC2)c1 [Entry 1237]
IC50 [1]: 5 to 10 µM

CC1CCCCC1n1c(-c2ccccn2)nc2cc(C(=O)O)ccc21 (stereo not drawn) [Entry 7001]
IC50 (IC50 μM, Table 7): 10 to 25 µM

CC(=O)Nc1nc([C@H](Cc2ccc(OCC(=O)O)cc2)NC(=O)c2ccc3c(c2)nc(-c2ccoc2)n3C2CCCCC2)cs1 [Entry 1134, [4((S)-2-(2-Acetylamino-thiazol-4-yl)-2-{[1-(1-cyclohexyl-2-furan-3-yl-1H-benzimidazol-5-yl)-methanoyl]-amino}-ethyl)-phenoxy]-acetic Acid]
IC50 [1]: 1 to 5 µM

O=C(N[C@@H](Cc1cc(Br)c(O)c(Br)c1)C(=O)O)c1ccc2c(c1)nc(-c1ccoc1)n2C1CCCCC1 [Entry 16041]
IC50 (IC50, Table 16): < 1 µM

O=C(N[C@@H](c1ccccc1)[C@H](O)c1ccccc1)c1ccc2c(c1)nc(-c1ccccn1)n2C1CCCCC1 [Entry 2009]
IC50 (IC50 μM, Table 2): 10 to 25 µM

Cc1cc(O)cc(C)c1CC(NC(=O)c1ccc2c(c1)nc(-c1ccoc1)n2C1CCCCC1)C(=O)O (stereo not drawn) [Entry 1069]
IC50 [1]: 1 to 5 µM

O=C(COc1ccc(-c2nc3cc(C(=O)O)ccc3n2C2CCCCC2)cc1)NCc1ccccc1 [Entry 7008]
IC50 (IC50 μM, Table 7): 10 to 25 µM

CC(CC(=O)Nc1cccc(/C=C/C(=O)O)c1)NC(=O)c1ccc2c(c1)nc(-c1ccoc1)n2C1CCCCC1 (stereo not drawn) [Entry 1160]
IC50 [1]: 1 to 5 µM

Nc1nc([C@H](Cc2c[nH]c3ccc(O)cc23)NC(=O)c2ccc3c(c2)nc(-c2ccoc2)n3C2CCCCC2)cs1 [Entry 14002, 1-Cyclohexyl-2-furan-3-yl-1H-benzimidazole-5-carboxylic Acid [(S)-1-(2-Amino-thiazol-4-yl)-2-(5-hydroxy-1H-indol-3-yl)-ethyl]-amide]
IC50 (IC50, Table 14): < 1 µM

O=C(O)COc1ccc2[nH]cc(C[C@H](NC(=O)c3ccc4c(c3)nc(-c3ccoc3)n4[C@@H]3CCCC[C@H]3O)C(=O)O)c2c1 [Entry 22008]
IC50 (IC50 μM, Table 22): < 1 µM

O=C(O)c1ccc2c(c1)nc(/C=C/c1ccccc1)n2C1CCCCC1 [Entry 7011]
IC50 (IC50 μM, Table 7): 10 to 25 µM

Cn1cc(C[C@H](NC(=O)c2ccc3c(c2)nc(-c2ccoc2)n3C2CCCCC2)C(=O)O)c2cc(O)ccc21 [Entry 11021, (S)-2-{[1-(1-Cyclohexyl-2-furan-3-yl-1H-benzoimidazol-5-yl)-methanoyl]-amino}-3(5-hydroxy-1-methyl-1H-indol-3-yl)-propionic Acid]
IC50 (IC50, Table 11): < 1 µM

O=C(O)c1ccc(CN2CCCC(NC(=O)c3ccc4c(c3)nc(-c3ccoc3)n4C3CCCCC3)C2)cc1 (stereo not drawn) [Entry 1275]
IC50 [1]: 5 to 10 µM

Cc1cc(-c2nc3cc(C(=O)N[C@@H](Cc4c[nH]c5ccc(O)cc45)C(=O)O)ccc3n2C2CCCCC2)nn1C [Entry 2125]
IC50 (IC50 μM, Table 2): 5 to 10 µM

O=C(O)COc1ccc(CN2CCC(CNC(=O)c3ccc4c(c3)nc(-c3ccoc3)n4C3CCCCC3)CC2)cc1 [Entry 1283]
IC50 [1]: 10 to 25 µM

CC(=O)Nc1ccc(C[C@H](NC(=O)c2ccc3c(c2)nc(-c2ccoc2)n3C2CCCCC2)C(=O)O)cc1 [Entry 16031, (S)-3-(4-Acetylaminophenyl)-2-{[1-(1-Cyclohexyl-2-furan-3-yl-1H-benzoimidazol-5-yl)-methanoyl]-amino}-propionic Acid]
IC50 (IC50, Table 16): < 1 µM

O=C(N[C@@H](Cc1c[nH]c2ccc(O)cc12)C(=O)O)c1ccc2c(c1)nc(-c1ccoc1)n2C1CCCCCC1 [Entry 22016]
IC50 (IC50 μM, Table 22): < 1 µM

O=C(O)Cc1ccc(C[C@H](NC(=O)c2ccc3c(c2)nc(-c2ccoc2)n3C2CCCCC2)C(=O)O)cc1 [Entry 16002, (S)-3-(4-Carboxymethyl-phenyl)-2-{[1-(1-cyclohexyl-2-furan-3-yl-1H-benzoimidazol-5-yl)-methanoyl]-amino}-propionic Acid]
IC50 (IC50, Table 16): < 1 µM

O=C(O)CCC(=O)NC1CCCC(NC(=O)c2ccc3c(c2)nc(-c2ccoc2)n3C2CCCCC2)C1 (stereo not drawn) [Entry 1221]
IC50 [1]: 10 to 25 µM

O=C(O)CCNC(=O)N[C@H]1CC[C@H](NC(=O)c2ccc3c(c2)nc(-c2ccoc2)n3C2CCCCC2)CC1 [Entry 1215]
IC50 [1]: 10 to 25 µM

O=C(O)COc1ccc(CN2CCC(NC(=O)c3ccc4c(c3)nc(-c3ccoc3)n4C3CCCCC3)C2)cc1 (stereo not drawn) [Entry 1282]
IC50 [1]: 5 to 10 µM

O=C(O)COc1ccc2c(c1)c(C[C@H](NC(=O)c1ccc3c(c1)nc(-c1ccoc1)n3C1CCCCC1)C(=O)O)cn2CC(=O)O
IC50 (IC50, Table 11): < 1 µM

O=C(N[C@@H](Cc1c[nH]c2ccc(O)cc12)C(=O)O)c1ccc2c(c1)nc(-c1ccccc1OCCO)n2C1CCCCC1 [Entry 2093]
IC50 (IC50 μM, Table 2): 1 to 5 µM

O=C(N[C@@H](Cc1ccc(O)c(O)c1)C(=O)O)c1ccc2c(c1)nc(-c1ccoc1)n2C1CCCCC1 [Entry 16015]
IC50 (IC50, Table 16): < 1 µM

O=C(O)/C=C/c1ccc(C[C@H](NC(=O)c2ccc3c(c2)nc(-c2ccoc2)n3C2CCCCC2)C(=O)O)cc1 [Entry 16040]
IC50 (IC50, Table 16): < 1 µM

CNc1nc([C@H](Cc2c[nH]c3ccc(O)cc23)NC(=O)c2ccc3c(c2)nc(-c2ccoc2)n3C2CCCCC2)cs1 [Entry 14004, 1-Cyclohexyl-2-furan-3-yl-1H-benzimidazole-5-carboxylic Acid [(S)-2-(5-Hydroxy-1H-indol-3-yl)-1-(2-methylamino-thiazol-4-yl)-ethyl]-amide]
IC50 (IC50, Table 14): < 1 µM

O=C(NC1CCCC(n2c(=O)[nH]c3ccccc3c2=O)C1)c1ccc2c(c1)nc(-c1ccoc1)n2C1CCCCC1 (stereo not drawn) [Entry 1198]
IC50 [1]: 10 to 25 µM

— patent US6448281B1 (Boehringer Ingelheim (Canada) Ltd., priority 2000, dated 2002)
